According to paper PMC8174033:
Where a chain is given by its changes, count along the chain named. These are yes or no findings as the source states them, for the method shown. Binding seen in cells or lysates may run through a third protein. Some entries that bind do so weakly or less than the wild type. For part of these data: Tags and fused reporters may be left off the sequences shown. Each block holds one substance with its values, some of them ahead of it.

Chains of the proteins cited; added tags and fusions are not shown. Lines headed by an entry give the natural chain unless they say otherwise; changes in a name come on top. Residues count along the entry.
UniProt Q14194: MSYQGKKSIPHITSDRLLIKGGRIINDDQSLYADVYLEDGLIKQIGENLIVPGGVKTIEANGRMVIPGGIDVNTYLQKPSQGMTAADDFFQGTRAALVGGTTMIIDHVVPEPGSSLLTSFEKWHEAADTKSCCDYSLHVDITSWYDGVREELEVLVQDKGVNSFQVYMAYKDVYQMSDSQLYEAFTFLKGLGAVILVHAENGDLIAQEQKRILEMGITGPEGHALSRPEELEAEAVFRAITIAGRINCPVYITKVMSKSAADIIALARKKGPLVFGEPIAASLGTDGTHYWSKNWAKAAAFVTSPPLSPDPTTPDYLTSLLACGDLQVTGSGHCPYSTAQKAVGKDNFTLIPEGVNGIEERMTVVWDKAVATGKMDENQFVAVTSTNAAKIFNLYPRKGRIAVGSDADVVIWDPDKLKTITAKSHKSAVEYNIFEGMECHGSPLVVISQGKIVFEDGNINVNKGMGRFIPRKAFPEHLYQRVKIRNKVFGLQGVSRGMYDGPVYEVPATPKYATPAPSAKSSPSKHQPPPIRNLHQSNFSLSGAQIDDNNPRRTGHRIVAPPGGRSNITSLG
UniProt P70206, residues 28-1242: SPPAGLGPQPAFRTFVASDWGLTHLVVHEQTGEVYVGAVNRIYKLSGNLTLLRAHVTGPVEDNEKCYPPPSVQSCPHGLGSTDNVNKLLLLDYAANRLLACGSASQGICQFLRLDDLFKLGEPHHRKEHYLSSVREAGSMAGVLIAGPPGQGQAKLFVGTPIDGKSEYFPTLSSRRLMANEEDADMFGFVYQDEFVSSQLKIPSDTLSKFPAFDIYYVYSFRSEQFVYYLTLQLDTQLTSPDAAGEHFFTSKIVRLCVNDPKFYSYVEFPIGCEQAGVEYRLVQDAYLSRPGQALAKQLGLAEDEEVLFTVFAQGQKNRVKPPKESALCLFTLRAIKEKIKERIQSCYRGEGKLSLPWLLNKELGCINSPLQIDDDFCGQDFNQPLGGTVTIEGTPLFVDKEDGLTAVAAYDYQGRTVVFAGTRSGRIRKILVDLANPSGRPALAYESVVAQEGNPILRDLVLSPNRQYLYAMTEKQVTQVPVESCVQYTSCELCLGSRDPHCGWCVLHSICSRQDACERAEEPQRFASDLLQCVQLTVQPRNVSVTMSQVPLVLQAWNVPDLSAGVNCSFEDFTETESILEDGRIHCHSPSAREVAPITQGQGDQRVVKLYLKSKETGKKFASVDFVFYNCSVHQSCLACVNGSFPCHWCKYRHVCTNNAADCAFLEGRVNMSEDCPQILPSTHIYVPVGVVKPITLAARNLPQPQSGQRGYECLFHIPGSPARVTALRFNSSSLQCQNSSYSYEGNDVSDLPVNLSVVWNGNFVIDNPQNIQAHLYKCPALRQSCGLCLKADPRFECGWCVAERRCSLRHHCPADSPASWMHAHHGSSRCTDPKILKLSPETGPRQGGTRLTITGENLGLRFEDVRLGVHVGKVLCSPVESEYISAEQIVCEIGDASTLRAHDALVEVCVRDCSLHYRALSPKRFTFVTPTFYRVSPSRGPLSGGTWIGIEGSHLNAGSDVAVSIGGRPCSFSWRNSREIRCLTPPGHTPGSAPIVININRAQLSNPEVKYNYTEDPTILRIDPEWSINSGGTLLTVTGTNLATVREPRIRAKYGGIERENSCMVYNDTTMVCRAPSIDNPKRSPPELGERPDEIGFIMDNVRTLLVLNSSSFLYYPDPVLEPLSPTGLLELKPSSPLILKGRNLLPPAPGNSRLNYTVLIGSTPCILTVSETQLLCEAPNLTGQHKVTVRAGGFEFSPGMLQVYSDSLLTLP

Legend:
[1] = target: T1, fasciculation and elongation protein zeta 1 (FEZ1), full-length, FLAG-tagged (UniProt Q99689); assay: co-IP; HEK293 cells co-expressing the two tagged proteins, 24 h after transfection; lysis and washes in 50 mM HEPES, 150 mM NaCl, 1 mM EDTA, 1% Triton X-100, pH 7.2; IP with α-FLAG and Protein A/G agarose at 4°C; immunoblot
T1 sequence: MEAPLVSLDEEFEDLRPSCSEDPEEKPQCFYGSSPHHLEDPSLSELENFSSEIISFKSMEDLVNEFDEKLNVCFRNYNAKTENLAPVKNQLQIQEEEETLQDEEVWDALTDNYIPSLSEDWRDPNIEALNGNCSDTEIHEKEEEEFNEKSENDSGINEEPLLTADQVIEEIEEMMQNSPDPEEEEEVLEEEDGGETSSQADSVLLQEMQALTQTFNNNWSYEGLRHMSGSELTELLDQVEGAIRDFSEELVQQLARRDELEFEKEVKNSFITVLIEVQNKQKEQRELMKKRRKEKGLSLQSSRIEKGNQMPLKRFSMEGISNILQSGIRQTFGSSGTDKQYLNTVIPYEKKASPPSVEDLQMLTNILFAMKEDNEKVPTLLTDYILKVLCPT

[2] = target: T2, FEZ1 (amino acids 1-220), EmGFP-tagged (UniProt Q99689); assay: co-IP; HEK293 cells co-expressing the two tagged proteins, 24 h after transfection; lysis and washes in 50 mM HEPES, 150 mM NaCl, 1 mM EDTA, 1% Triton X-100, pH 7.2; GFP-Trap agarose beads 1-3 h at 4°C; immunoblot
T2 sequence: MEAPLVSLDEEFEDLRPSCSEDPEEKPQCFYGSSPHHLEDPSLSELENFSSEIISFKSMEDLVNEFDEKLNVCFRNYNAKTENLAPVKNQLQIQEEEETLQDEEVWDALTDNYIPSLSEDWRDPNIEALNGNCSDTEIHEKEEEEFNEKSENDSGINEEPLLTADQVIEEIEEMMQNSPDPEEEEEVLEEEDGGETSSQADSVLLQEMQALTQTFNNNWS

[3] = target: FEZ1 (amino acids 1-308), EmGFP-tagged (UniProt Q99689); assay: as above
[4] = target: T3, FEZ1 (amino acids 131-210), EmGFP-tagged (UniProt Q99689); assay: as above
T3 sequence: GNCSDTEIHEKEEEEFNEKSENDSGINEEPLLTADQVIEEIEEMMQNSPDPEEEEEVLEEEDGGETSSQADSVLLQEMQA

[5] = target: T4, FEZ1 QUAD phosphomutant (S58A, S134A, S301A, S316A), EmGFP-tagged (UniProt Q99689); assay: as above
T4 sequence: T1 sequence with S58A, S134A, S301A, S316A

[6] = target: T5, FEZ1 S316A phosphomutant, EmGFP-tagged (UniProt Q99689); assay: as above
T5 sequence: T1 sequence with S316A

[7] = target: T6, FEZ1 S58A phosphomutant, EmGFP-tagged (UniProt Q99689); assay: as above
T6 sequence: T1 sequence with S58A

[8] = target: T7, fasciculation and elongation protein zeta 1 (FEZ1), full-length, EmGFP-tagged (UniProt Q99689); assay: as above
T7 sequence: T1 sequence

[9] = target: T1, fasciculation and elongation protein zeta 1 (FEZ1), full-length, FLAG-tagged; assay: co-IP; HEK293 cells expressing three proteins together (FLAG-FEZ1, mCherry-Nrp1, EmGFP-PlxnA1 ED); HEPES lysis buffer with 1% Triton X-100; IP with α-FLAG; immunoblot

- binding [1]: binds
Substance: collapsin response mediator protein 1 (CRMP1), full-length, EmGFP-tagged (from UniProt Q14194 1-572)

- binding [2]: no binding
- binding [3]: binds
- binding [4]: no binding
- binding [5]: binds
- binding [6]: binds
- binding [7]: binds
- binding [8]: binds
Substance: collapsin response mediator protein 1 (CRMP1), full-length, FLAG-tagged (from UniProt Q14194 1-572)

- binding [9]: binds
Substance: neuropilin 1 (Nrp1), mCherry-tagged (from UniProt P97333 22-923) (receptor)

Second part, the substance before the results:

Substance: Plexin A1 extracellular domain, EmGFP-tagged (from UniProt P70206 28-1242) (domain or fragment)
- binding [9]: binds

Substance: CRMP1 (amino acids 465-572), C-terminal region, EmGFP-tagged (from UniProt Q14194 465-572) (domain or fragment)
- binding [1]: binds

Substance: CRMP1 (amino acids 1-462), N-terminal and central amidohydrolase family domain, EmGFP-tagged (from UniProt Q14194 1-462) (domain or fragment)
- binding [1]: binds
